Measured values from the supplement of paper PMC8728848.
The list shows a part of the results.

Key:
Assay in all cases: glycan array binding signal (z-score within array); higher = stronger binding
Details in all cases: glycan notation: IUPAC condensed, linker removed
Gal4S6S(b1-4)GlcNAc = molecular target: Gal4S6S(b1-4)GlcNAc
Summary of the method: (§1)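 Glycan array data were curated from 3228 arrays in the Consortium for Functional Glycomics database and kept only where the protein sequence was available. Glycan names were converted to IUPAC-condensed notation, and columns mapping to the same glycan were averaged. The binding signal is a within-array Z-score, averaged across arrays of the same protein sequence at different concentrations or buffers and across linkers. Negative Z-scores can be read as non-binding.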

Gal6S(b1-4)Glc = molecular target: Gal6S(b1-4)Glc
Summary of the method: as §1

Gal6S(b1-4)Glc6S = molecular target: Gal6S(b1-4)Glc6S
Summary of the method: as §1

Gal6S(b1-4)GlcNAc = molecular target: Gal6S(b1-4)GlcNAc
Summary of the method: as §1

GalNAc(a1-3)Gal = molecular target: GalNAc(a1-3)Gal
Summary of the method: as §1

GalNAc(a1-3)GalNAc = molecular target: GalNAc(a1-3)GalNAc
Summary of the method: as §1

[1] = molecular target: GalNAc(b1-3)Gal(a1-4)Gal(b1-4)GlcNAc
Summary of the method: as §1

GalNAc(b1-3)GalNAc = molecular target: GalNAc(b1-3)GalNAc
Summary of the method: as §1

GalNAc(b1-4)GlcNAc = molecular target: GalNAc(b1-4)GlcNAc
Summary of the method: as §1

Glc(a1-4)Glc = molecular target: Glc(a1-4)Glc
Summary of the method: as §1

Glc(a1-6)Glc(a1-6)Glc = molecular target: Glc(a1-6)Glc(a1-6)Glc
Summary of the method: as §1

Glc(b1-4)Glc = molecular target: Glc(b1-4)Glc
Summary of the method: as §1

Glc(b1-6)Glc = molecular target: Glc(b1-6)Glc
Summary of the method: as §1

GlcA(b1-3)Gal = molecular target: GlcA(b1-3)Gal
Summary of the method: as §1

GlcA(b1-6)Gal = molecular target: GlcA(b1-6)Gal
Summary of the method: as §1

[2] = molecular target: GlcNAc(a1-3)Gal(b1-4)GlcNAc
Summary of the method: as §1

[3] = molecular target: GlcNAc(a1-6)Gal(b1-4)GlcNAc
Summary of the method: as §1

[4] = molecular target: GlcNAc(b1-2)Gal(b1-3)GalNAc
Summary of the method: as §1

[5] = molecular target: GlcNAc(b1-2)Man(a1-3)[GlcNAc(b1-2)Man(a1-6)]Man(b1-4)GlcNAc(b1-4)GlcNAc
Summary of the method: as §1

GlcNAc(b1-3)Gal = molecular target: GlcNAc(b1-3)Gal
Summary of the method: as §1

[6] = molecular target: GlcNAc(b1-3)Gal(b1-3)GalNAc
Summary of the method: as §1

GlcNAc(b1-3)Gal(b1-4)Glc = molecular target: GlcNAc(b1-3)Gal(b1-4)Glc
Summary of the method: as §1

[7] = molecular target: GlcNAc(b1-3)Gal(b1-4)GlcNAc
Summary of the method: as §1

[8] = molecular target: GlcNAc(b1-3)Gal(b1-4)GlcNAc(b1-3)Gal(b1-4)GlcNAc
Summary of the method: as §1

GlcNAc(b1-3)GalNAc = molecular target: GlcNAc(b1-3)GalNAc
Summary of the method: as §1

[9] = molecular target: GlcNAc(b1-3)[GlcNAc(b1-6)]Gal(b1-4)GlcNAc
Summary of the method: as §1

[10] = molecular target: GlcNAc(b1-3)[GlcNAc(b1-6)]GalNAc
Summary of the method: as §1

[11] = molecular target: GlcNAc(b1-3)[GlcNAc(b1-6)]GlcNAc(b1-4)GlcNAc
Summary of the method: as §1

[12] = molecular target: GlcNAc(b1-4)Gal(b1-4)GlcNAc
Summary of the method: as §1

[13] = molecular target: GlcNAc(b1-4)GlcNAc(b1-4)GlcNAc
Summary of the method: as §1

[14] = molecular target: GlcNAc(b1-4)GlcNAc(b1-4)GlcNAc(b1-4)GlcNAc(b1-4)GlcNAc
Summary of the method: as §1

[15] = molecular target: GlcNAc(b1-4)GlcNAc(b1-4)GlcNAc(b1-4)GlcNAc(b1-4)GlcNAc(b1-4)GlcNAc
Summary of the method: as §1

[16] = molecular target: GlcNAc(b1-4)[GlcNAc(b1-6)]GalNAc
Summary of the method: as §1

[17] = molecular target: GlcNAc(b1-6)Gal(b1-4)GlcNAc
Summary of the method: as §1

GlcNAc(b1-6)GalNAc = molecular target: GlcNAc(b1-6)GalNAc
Summary of the method: as §1

Kdn(a2-3)Gal(b1-3)GlcNAc = molecular target: Kdn(a2-3)Gal(b1-3)GlcNAc
Summary of the method: as §1

Kdn(a2-3)Gal(b1-4)GlcNAc = molecular target: Kdn(a2-3)Gal(b1-4)GlcNAc
Summary of the method: as §1

[18] = molecular target: Man(a1-2)Man(a1-2)Man(a1-3)Man
Summary of the method: as §1

[19] = molecular target: Man(a1-2)Man(a1-2)Man(a1-6)[Man(a1-3)]Man
Summary of the method: as §1

Man(a1-2)Man(a1-3)Man = molecular target: Man(a1-2)Man(a1-3)Man
Summary of the method: as §1

[20] = molecular target: Man(a1-2)Man(a1-3)[Man(a1-2)Man(a1-6)]Man
Summary of the method: as §1

[21] = molecular target: Man(a1-2)Man(a1-3)[Man(a1-2)Man(a1-6)]Man(a1-6)[Man(a1-2)Man(a1-2)Man(a1-3)]Man(b1-4)GlcNAc(b1-4)GlcNAc
Summary of the method: as §1

[22] = molecular target: Man(a1-2)Man(a1-3)[Man(a1-6)]Man(a1-6)[Man(a1-2)Man(a1-3)]Man(b1-4)GlcNAc(b1-4)GlcNAc
Summary of the method: as §1

[23] = molecular target: Man(a1-2)Man(a1-6)[Man(a1-3)]Man(a1-6)[Man(a1-2)Man(a1-2)Man(a1-3)]Man(b1-4)GlcNAc(b1-4)GlcNAc
Summary of the method: as §1

Man(a1-3)[Man(a1-6)]Man = molecular target: Man(a1-3)[Man(a1-6)]Man
Summary of the method: as §1

[24] = molecular target: Man(a1-3)[Man(a1-6)]Man(a1-6)[Man(a1-2)Man(a1-3)]Man(b1-4)GlcNAc(b1-4)GlcNAc
Summary of the method: as §1

[25] = molecular target: Man(a1-3)[Man(a1-6)]Man(a1-6)[Man(a1-3)]Man(b1-4)GlcNAc(b1-4)GlcNAc
Summary of the method: as §1

[26] = molecular target: Man(a1-3)[Man(a1-6)]Man(b1-4)GlcNAc(b1-4)GlcNAc
Summary of the method: as §1

Man(b1-4)GlcNAc = molecular target: Man(b1-4)GlcNAc
Summary of the method: as §1

Neu5Ac(a2-3)Gal = molecular target: Neu5Ac(a2-3)Gal
Summary of the method: as §1

[27] = molecular target: Neu5Ac(a2-3)Gal(b1-3)GalNAc
Summary of the method: as §1

[28] = molecular target: Neu5Ac(a2-3)Gal(b1-3)GalNAc(b1-3)Gal(a1-4)Gal(b1-4)Glc
Summary of the method: as §1

B1: LKITALY (Gibberella zeae) (protein)
chain: MGNFHESSNNIWLEDGHILHAECGNGEGDYVESTLDLDYYIGNDDGSFSWGGENFSGSASNITLDIEGDDNIPVLRAELNPMDGDPVEANVNLSERIGNDCGTLIFLA
glycan array binding signal (z-score) (Gal4S6S(b1-4)GlcNAc): -0.312 | glycan array binding signal (z-score) (Gal6S(b1-4)Glc): -0.354 | glycan array binding signal (z-score) (Gal6S(b1-4)Glc6S): -0.342 | glycan array binding signal (z-score) (Gal6S(b1-4)GlcNAc): 2.01 | glycan array binding signal (z-score) (GalNAc(a1-3)Gal): -0.357 | glycan array binding signal (z-score) (GalNAc(a1-3)GalNAc): -0.351 | glycan array binding signal (z-score) [1]: -0.36 | glycan array binding signal (z-score) (GalNAc(b1-3)GalNAc): -0.36 | glycan array binding signal (z-score) (GalNAc(b1-4)GlcNAc): -0.349 | glycan array binding signal (z-score) (Glc(a1-4)Glc): -0.352 | glycan array binding signal (z-score) (Glc(a1-6)Glc(a1-6)Glc): -0.359 | glycan array binding signal (z-score) (Glc(b1-4)Glc): -0.359 | glycan array binding signal (z-score) (Glc(b1-6)Glc): -0.368 | glycan array binding signal (z-score) (GlcA(b1-3)Gal): -0.337 | glycan array binding signal (z-score) (GlcA(b1-6)Gal): -0.349 | glycan array binding signal (z-score) [2]: -0.363 | glycan array binding signal (z-score) [3]: -0.358 | glycan array binding signal (z-score) [4]: -0.343 | glycan array binding signal (z-score) [5]: -0.362 | glycan array binding signal (z-score) (GlcNAc(b1-3)Gal): -0.348 | glycan array binding signal (z-score) [6]: -0.356 | glycan array binding signal (z-score) (GlcNAc(b1-3)Gal(b1-4)Glc): -0.354 | glycan array binding signal (z-score) [7]: -0.351 | glycan array binding signal (z-score) [8]: -0.352 | glycan array binding signal (z-score) (GlcNAc(b1-3)GalNAc): -0.355 | glycan array binding signal (z-score) [9]: -0.355 | glycan array binding signal (z-score) [10]: -0.348 | glycan array binding signal (z-score) [11]: -0.353 | glycan array binding signal (z-score) [12]: -0.359 | glycan array binding signal (z-score) [13]: -0.36 | glycan array binding signal (z-score) [14]: -0.354 | glycan array binding signal (z-score) [15]: -0.355 | glycan array binding signal (z-score) [16]: -0.356 | glycan array binding signal (z-score) [17]: -0.353 | glycan array binding signal (z-score) (GlcNAc(b1-6)GalNAc): -0.355 | glycan array binding signal (z-score) (Kdn(a2-3)Gal(b1-3)GlcNAc): -0.357 | glycan array binding signal (z-score) (Kdn(a2-3)Gal(b1-4)GlcNAc): 3.13 | glycan array binding signal (z-score) [18]: -0.345 | glycan array binding signal (z-score) [19]: -0.344 | glycan array binding signal (z-score) (Man(a1-2)Man(a1-3)Man): -0.355 | glycan array binding signal (z-score) [20]: -0.35 | glycan array binding signal (z-score) [21]: -0.356 | glycan array binding signal (z-score) [22]: -0.362 | glycan array binding signal (z-score) [23]: -0.36 | glycan array binding signal (z-score) (Man(a1-3)[Man(a1-6)]Man): -0.342 | glycan array binding signal (z-score) [24]: -0.318 | glycan array binding signal (z-score) [25]: -0.347 | glycan array binding signal (z-score) [26]: 0.382 | glycan array binding signal (z-score) (Man(b1-4)GlcNAc): -0.337 | glycan array binding signal (z-score) (Neu5Ac(a2-3)Gal): -0.352 | glycan array binding signal (z-score) [27]: -0.33 | glycan array binding signal (z-score) [28]: -0.358
